Out of some 150,000 compounds screened, about 540 (0.36%) showed an effect of 50% or more. This is one part of the list.
These compounds were tested on Plasmodium falciparum (assay: Primary screen in NF54 nanoGlo assay, in single point, at 2uM, 72h; a lower Z score goes with more inhibition). Conditions: timepoint 72 hour.
Assay type: functional, Erythrocyte

Point of comparison: `CCc1ncc(C(=O)N2C[C@H](c3ccc(C)cc3)[C@@H]3[C@H]2C2CCN3CC2)cn1`, “% Inhibition” value -1%. Against it:
- Cc1cc(C(=O)NC2CC2)nn1[C@@H](C)C1CC1 — lower, -5%
- O=C(NCCN1CCCC1=O)c1ccc(-c2ccc3oc(=O)[nH]c3c2)cc1 — lower, -13%
- COc1cc(-c2noc(-c3ccccc3)n2)ccc1OCC(=O)N1CCN(Cc2ccccc2)CC1 — lower, -2%
- CN1CC[C@@H]2CN(C(=O)CC3(C)CC3)C[C@@H]21 — lower, -4%
- Cc1nc2n(n1)CC(NC(C)Cc1ccccc1F)CC2 (stereo not drawn) — higher, 11%
- O=C1O[C@H]2CN(C3CCCC3)C[C@H]2N1CCc1ccccn1 — lower, -22%
- CN1CCN(Cc2ccc3c(c2)OCCO3)C[C@@H]1CCO — lower, -14%
- O=C(O)[C@@H](c1ccccc1F)N1CCC(c2c[nH]c3ccccc23)CC1 — lower, -12%
- Oc1ccc(Cl)cc1C1=NN[C@H](c2cccnc2)C1 — higher, 19%
- CCCn1cc(C(=O)N[C@@H]2c3ccccc3C[C@H]2O)c(C)n1 — higher, 3%
- CCN(CC)C(=O)[C@H](C)N1CCc2ccnc(N(C)C)c2C1 — lower, -4%
- CC(Cc1ccc(O)cc1)NC(C)c1ccc2ccccc2n1 (stereo not drawn) — lower, -15%
- O=c1cnc2ccccc2n1Cc1cncn1C1CC1 — the same, -1%
- O=C(c1cnn(Cc2ccccc2)c1)N1CCC2(CC1)OCCO2 — lower, -6%
- CC(C)N1C(=O)NC(=O)C2(Cc3ccccc3N3CCN(Cc4ccccc4)CC32)C1=O (stereo not drawn) — higher, 34%
- COCCOCC(=O)N1C[C@@H](c2ccc(F)cc2)[C@@H]2[C@H]1C1CCN2CC1 — higher, 3%
- Cc1ccc(CNC(=O)N2[C@@H]3CC[C@H]2Cc2nc(C)[nH]c(=O)c2C3)cc1 — lower, -9%
- Cc1ocnc1C(=O)N[C@H]1COC[C@@H]1N1CCCC1 — lower, -5%
- CCCN1C[C@@H]2Oc3ncccc3C(=O)N(C)[C@@H]2C1 — lower, -6%
- CCOc1ccccc1OCC#CCN1CCCC1 — lower, -15%
- Cc1cc(CC(C)NC2CC3CCC(C2)N3C(=O)OC(C)(C)C)n[nH]1 (stereo not drawn) — the same, -1%
- Cn1cc(C(=O)N[C@@H]2c3ccccc3CC[C@@H]2O)c2cc(F)ccc21 — lower, -12%
- COc1cccc([C@H]2CN(S(=O)(=O)N(C)C)[C@@H]3C4CCN(CC4)[C@H]23)c1 — lower, -7%
- OCc1ccnc(N2CCC[C@H]2c2cncc(Br)c2)n1 — higher, 4%
- O=c1[nH]c2ccc(S(=O)(=O)NCc3cccn3Cc3ccccc3)cc2o1 — lower, -13%
- Cc1ccccc1C(=O)N1CCC2(CC1)c1nccn1-c1ccccc1CN2CC(C)C — lower, -13%
- Cc1noc(C)c1CN1CCCN(C(=O)Cc2ccccc2)CC1 — lower, -6%
- O=C1CN(CC23CCC(CC2)C3)CCN1 — higher, 2%
- O=C(Cc1cnccn1)N1C[C@@H]2CC[C@H]1CN(Cc1cscn1)C2 — lower, -8%
- CN1CCC(N(C)C2CCCCC2N(C)C(=O)Cc2ccc(O)cc2)CC1 (stereo not drawn) — higher, 34%
- CC[C@@H](Cn1ccnc1)NCc1cc(C)c(C)o1 — higher, 0%
- COCC1(C(=O)N2C[C@H](c3ccccc3)[C@@H]3[C@H]2C2CCN3CC2)CCC1 — lower, -5%
- COC[C@H](C)NCc1ccc(C#N)c(Cl)c1 — lower, -7%
- c1ccc([C@H]2CN(Cc3nccs3)[C@@H]3C4CCN(CC4)[C@H]23)cc1 — higher, 2%
- CCN1C(=O)N=C(O)[C@]2(Cc3c(ccc4ccccc34)N(C)C2)C1=O — lower, -11%
- Cc1cc(C(=O)N[C@H]2CCc3nccn3C2)c(C)n1CC1CC1 — lower, -10%
- c1cc2c(c(N3CCNCC3)c1)CCN2 — higher, 2%
- CN1CCN(c2nnc(-c3ccon3)s2)C[C@@]12CCOC2 — higher, 0%
- O=C(CN1CCN2CCC[C@H]2C1)Nc1ccc(Cl)cn1 — lower, -2%
- CC[C@]1(c2ccccc2)C(=O)NC(=O)N(C(=O)c2ccccc2F)C1=O — lower, -26%
- Nc1ccc2[nH]c(CCN3CCOCC3)nc2c1 — higher, 1%
- Cc1ccccc1[C@@H]1c2cccn2-c2ccccc2CN1C(=O)NCc1ccc(F)cc1 — higher, 2%
- O=C(N/C=C/c1ccco1)OCC(Cl)(Cl)Cl — higher, 1%
- Cc1cc(NC(=O)[C@H](C)N2CCCC3(CCCCC3)C2)on1 — lower, -3%
- CCc1n[nH]c(C(=O)N2C[C@@H](c3ccc(C)cc3)[C@@H]3[C@H]2C2CCN3CC2)c1C — lower, -5%
- C[C@H]1CN(Cc2cccnc2)CCN1C(=O)Cc1ccc(F)c(Br)c1 — lower, -16%
- O=C(Cc1ccc(CO)cc1)N1CCN(CC2CC2)[C@@H]2CS(=O)(=O)C[C@@H]21 — lower, -11%
- CN1CC(C(=O)c2ccc(Cl)cc2)C(c2ccccc2)C1 (stereo not drawn) — the same, -1%
- CCN1CCN(C(=O)CCc2c(C)noc2C)[C@H]2CS(=O)(=O)C[C@H]21 — higher, 6%
- CC(C)CC1C(F)(F)C12CC1CCC(C2)N1 (stereo not drawn) — lower, -4%
- Cc1nc2ccccc2c(=O)n1-c1ccc2ccccc2c1 — lower, -3%
- C=CCOc1cccc2c1cc(C(=O)N1CCC(C)CC1)n2Cc1c(F)cccc1F — lower, -2%
- CC(C)c1ccc(CC2(CN3C[C@H]4C[C@H](C3)c3cccc(=O)n3C4)C(=O)NC(=O)N(c3ccccc3)C2=O)cc1 (stereo partly drawn) — higher, 27%

Point of comparison: `c1ccc([C@H]2CN(Cc3nccs3)[C@@H]3C4CCN(CC4)[C@H]23)cc1`, Z score -0.29. Against it:
- Cc1cc(C(=O)NC2CC2)nn1[C@@H](C)C1CC1 — higher, 0.91
- O=C(NCCN1CCCC1=O)c1ccc(-c2ccc3oc(=O)[nH]c3c2)cc1 — higher, 2.55
- COc1cc(-c2noc(-c3ccccc3)n2)ccc1OCC(=O)N1CCN(Cc2ccccc2)CC1 — higher, 0.29
- CN1CC[C@@H]2CN(C(=O)CC3(C)CC3)C[C@@H]21 — higher, 0.42
- Cc1nc2n(n1)CC(NC(C)Cc1ccccc1F)CC2 (stereo not drawn) — lower, -1.64
- CCc1ncc(C(=O)N2C[C@H](c3ccc(C)cc3)[C@@H]3[C@H]2C2CCN3CC2)cn1 — higher, 0.14
- O=C1O[C@H]2CN(C3CCCC3)C[C@H]2N1CCc1ccccn1 — higher, 1.93
- CN1CCN(Cc2ccc3c(c2)OCCO3)C[C@@H]1CCO — higher, 1.83
- O=C(O)[C@@H](c1ccccc1F)N1CCC(c2c[nH]c3ccccc23)CC1 — higher, 1
- Oc1ccc(Cl)cc1C1=NN[C@H](c2cccnc2)C1 — lower, -2.43
- CCCn1cc(C(=O)N[C@@H]2c3ccccc3C[C@H]2O)c(C)n1 — lower, -0.38
- CCN(CC)C(=O)[C@H](C)N1CCc2ccnc(N(C)C)c2C1 — higher, 0.57
- CC(Cc1ccc(O)cc1)NC(C)c1ccc2ccccc2n1 (stereo not drawn) — higher, 1.3
- O=c1cnc2ccccc2n1Cc1cncn1C1CC1 — higher, 0.17
- O=C(c1cnn(Cc2ccccc2)c1)N1CCC2(CC1)OCCO2 — higher, 0.92
- CC(C)N1C(=O)NC(=O)C2(Cc3ccccc3N3CCN(Cc4ccccc4)CC32)C1=O (stereo not drawn) — lower, -1.78
- COCCOCC(=O)N1C[C@@H](c2ccc(F)cc2)[C@@H]2[C@H]1C1CCN2CC1 — lower, -0.54
- Cc1ccc(CNC(=O)N2[C@@H]3CC[C@H]2Cc2nc(C)[nH]c(=O)c2C3)cc1 — higher, 1.35
- Cc1ocnc1C(=O)N[C@H]1COC[C@@H]1N1CCCC1 — higher, 0.77
- CCCN1C[C@@H]2Oc3ncccc3C(=O)N(C)[C@@H]2C1 — higher, 0.89
- CCOc1ccccc1OCC#CCN1CCCC1 — higher, 1.73
- Cc1cc(CC(C)NC2CC3CCC(C2)N3C(=O)OC(C)(C)C)n[nH]1 (stereo not drawn) — higher, 0.08
- Cn1cc(C(=O)N[C@@H]2c3ccccc3CC[C@@H]2O)c2cc(F)ccc21 — higher, 1.62
- COc1cccc([C@H]2CN(S(=O)(=O)N(C)C)[C@@H]3C4CCN(CC4)[C@H]23)c1 — higher, 0.79
- OCc1ccnc(N2CCC[C@H]2c2cncc(Br)c2)n1 — lower, -0.77
- O=c1[nH]c2ccc(S(=O)(=O)NCc3cccn3Cc3ccccc3)cc2o1 — higher, 1.29
- Cc1ccccc1C(=O)N1CCC2(CC1)c1nccn1-c1ccccc1CN2CC(C)C — higher, 1.7
- Cc1noc(C)c1CN1CCCN(C(=O)Cc2ccccc2)CC1 — higher, 0.74
- O=C1CN(CC23CCC(CC2)C3)CCN1 — higher, -0.23
- O=C(Cc1cnccn1)N1C[C@@H]2CC[C@H]1CN(Cc1cscn1)C2 — higher, 1.07
- CN1CCC(N(C)C2CCCCC2N(C)C(=O)Cc2ccc(O)cc2)CC1 (stereo not drawn) — lower, -4.44
- CC[C@@H](Cn1ccnc1)NCc1cc(C)c(C)o1 — higher, 0.01
- COCC1(C(=O)N2C[C@H](c3ccccc3)[C@@H]3[C@H]2C2CCN3CC2)CCC1 — higher, 0.67
- COC[C@H](C)NCc1ccc(C#N)c(Cl)c1 — higher, 0.71
- CCN1C(=O)N=C(O)[C@]2(Cc3c(ccc4ccccc34)N(C)C2)C1=O — higher, 1.99
- Cc1cc(C(=O)N[C@H]2CCc3nccn3C2)c(C)n1CC1CC1 — higher, 2.04
- c1cc2c(c(N3CCNCC3)c1)CCN2 — higher, -0.25
- CN1CCN(c2nnc(-c3ccon3)s2)C[C@@]12CCOC2 — higher, 0
- O=C(CN1CCN2CCC[C@H]2C1)Nc1ccc(Cl)cn1 — higher, 0.36
- CC[C@]1(c2ccccc2)C(=O)NC(=O)N(C(=O)c2ccccc2F)C1=O — higher, 3.01
- Nc1ccc2[nH]c(CCN3CCOCC3)nc2c1 — higher, -0.2
- Cc1ccccc1[C@@H]1c2cccn2-c2ccccc2CN1C(=O)NCc1ccc(F)cc1 — higher, -0.21
- O=C(N/C=C/c1ccco1)OCC(Cl)(Cl)Cl — higher, -0.18
- Cc1cc(NC(=O)[C@H](C)N2CCCC3(CCCCC3)C2)on1 — higher, 0.41
- CCc1n[nH]c(C(=O)N2C[C@@H](c3ccc(C)cc3)[C@@H]3[C@H]2C2CCN3CC2)c1C — higher, 0.95
- C[C@H]1CN(Cc2cccnc2)CCN1C(=O)Cc1ccc(F)c(Br)c1 — higher, 1.45
- O=C(Cc1ccc(CO)cc1)N1CCN(CC2CC2)[C@@H]2CS(=O)(=O)C[C@@H]21 — higher, 1.64
- CN1CC(C(=O)c2ccc(Cl)cc2)C(c2ccccc2)C1 (stereo not drawn) — higher, 0.14
- CCN1CCN(C(=O)CCc2c(C)noc2C)[C@H]2CS(=O)(=O)C[C@H]21 — lower, -1.14
- CC(C)CC1C(F)(F)C12CC1CCC(C2)N1 (stereo not drawn) — higher, 0.84
- Cc1nc2ccccc2c(=O)n1-c1ccc2ccccc2c1 — higher, 0.38
- C=CCOc1cccc2c1cc(C(=O)N1CCC(C)CC1)n2Cc1c(F)cccc1F — higher, 0.43
- CC(C)c1ccc(CC2(CN3C[C@H]4C[C@H](C3)c3cccc(=O)n3C4)C(=O)NC(=O)N(c3ccccc3)C2=O)cc1 (stereo partly drawn) — lower, -3.49

— ChEMBL document CHEMBL4888484, “Replenishing the malaria drug discovery pipeline: Screening and hit evaluation of the MMV Hit Generation Library 1 (HGL1) against asexual blood stage Plasmodium falciparum ,using a nano luciferase reporter read-out” (2022)
